Results published in PMC4336329 (PLoS ONE, 2015).
Among all 310,000 compounds or so, about 14,000 (4.5%) showed an effect of 50% or more. The effect is printed as a negative number. This is one part of the list.

What follows are compounds tested against human ether-à-go-go-related gene (hERG) potassium channel (human, UniProt Q12809) (assay: primary screen, population patch clamp on CHO cells stably expressing hERG).
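Note: peak tail current of the secondary pulse compared with the same well before compound.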

Sequence of human ether-à-go-go-related gene (hERG) potassium channel (Q12809 whole entry, looked up): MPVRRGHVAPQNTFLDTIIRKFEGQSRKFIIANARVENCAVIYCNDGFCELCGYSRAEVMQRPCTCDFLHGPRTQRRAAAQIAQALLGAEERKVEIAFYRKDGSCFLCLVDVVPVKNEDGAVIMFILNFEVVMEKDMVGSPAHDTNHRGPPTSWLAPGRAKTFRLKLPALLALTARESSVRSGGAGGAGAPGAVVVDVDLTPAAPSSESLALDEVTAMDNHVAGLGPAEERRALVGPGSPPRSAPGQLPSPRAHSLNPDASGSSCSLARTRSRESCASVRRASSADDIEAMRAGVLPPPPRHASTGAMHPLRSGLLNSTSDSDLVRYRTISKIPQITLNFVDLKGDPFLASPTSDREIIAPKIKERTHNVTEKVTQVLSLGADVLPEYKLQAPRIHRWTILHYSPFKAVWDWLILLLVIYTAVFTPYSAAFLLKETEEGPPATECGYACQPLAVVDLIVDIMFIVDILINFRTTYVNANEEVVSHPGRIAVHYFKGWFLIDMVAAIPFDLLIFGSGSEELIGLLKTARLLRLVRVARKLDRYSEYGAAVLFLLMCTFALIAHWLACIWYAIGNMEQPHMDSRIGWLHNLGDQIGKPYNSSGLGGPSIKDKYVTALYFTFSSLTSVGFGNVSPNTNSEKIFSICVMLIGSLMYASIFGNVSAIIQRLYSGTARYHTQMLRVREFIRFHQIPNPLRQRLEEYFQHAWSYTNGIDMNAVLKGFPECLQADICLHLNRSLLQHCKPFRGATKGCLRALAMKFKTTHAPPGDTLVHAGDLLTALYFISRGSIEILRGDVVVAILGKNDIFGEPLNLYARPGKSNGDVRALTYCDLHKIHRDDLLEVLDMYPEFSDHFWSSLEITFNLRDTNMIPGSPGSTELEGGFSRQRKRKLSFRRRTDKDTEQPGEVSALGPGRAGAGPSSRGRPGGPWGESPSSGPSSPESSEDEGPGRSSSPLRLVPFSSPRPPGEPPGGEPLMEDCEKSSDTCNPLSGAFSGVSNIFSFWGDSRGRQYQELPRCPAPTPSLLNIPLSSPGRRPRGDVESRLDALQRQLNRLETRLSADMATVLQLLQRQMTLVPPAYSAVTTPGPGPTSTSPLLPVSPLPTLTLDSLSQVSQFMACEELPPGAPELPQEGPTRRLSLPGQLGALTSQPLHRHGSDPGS

Compound	hERG current change (%, negative = inhibition) at 10uM [%]
COc1ccc(N2CCN(C(=O)CCNS(=O)(=O)c3cccs3)CC2)cc1	-26
Cc1ccc(C)c(-n2nnnc2SCC(=O)c2ccc3c(c2)NC(=O)CO3)c1	-2.75
CCOC(=O)c1c(S(=O)(=O)Nc2cccc(Cl)c2)c(C)n(C)c1C	18.7
Cc1ccc(S(=O)(=O)N2CC(O)C[C@H]2C(=O)OCC(=O)Nc2ccc(N3CCCCC3)cc2)cc1C (stereo partly shown)	-9.93
c1cncc(-c2nn3c(Cn4nnc5ccccc54)nnc3s2)c1	-13.6
O=C(NCCOC(=O)c1ccc(S(=O)(=O)N2CCOCC2)cc1)c1cccnc1	-7.08
CN1CCN(NC(=O)c2cn(-c3ccccc3)nc2-c2ccc(OC(F)F)cc2)CC1.Cl	3
O=C(C1CCCO1)N(Cc1ccccc1)c1ccccc1 (stereo not shown)	-1.12
CCN1CCN(Cc2c(O)ccc3c2O/C(=C\C=C\c2ccccc2)C3=O)CC1	-1.47
O=C(COc1ccc(Cl)cc1)NCCS(=O)(=O)N1CCN(c2ccccc2F)CC1	5.38
O=C(Cn1c2ccc(F)cc2c2nc3n(c(=O)c21)CCS3)NCC1CCCO1 (stereo not shown)	5.58
O=C1CC(N2CCN(C(c3ccccc3)c3ccccc3)CC2)C(=O)N1 (stereo not shown)	-0.687
O=S(=O)(Nc1ccc(N2CCOCC2)cc1)c1ccc(F)cc1F	6.97
COc1ccc(S(=O)(=O)Cc2ccc(C(=O)N3CCc4ccccc4C3)o2)cc1	-59
NC(=S)Cc1ccccc1Cl	6.37
CCc1cc(C(=O)OC)c(NC(=O)CSc2nccn2C)s1	-56.9
S=P(Nn1cnnc1)(c1ccc(Br)cc1)c1ccc(Br)cc1	-0.834
COCCN1CCN(C(=O)c2cc(COc3cncc(Cl)c3)on2)CC1	10.6
COc1ccc(S(=O)(=O)NCCSc2ccccc2)cc1OC	-7.1
Cc1ccc(NC(=O)c2cccnc2)cc1S(=O)(=O)N(C)C	22.8
Cc1ccc(S(=O)(=O)CC(=O)Nc2sc(C)c(C)c2C(N)=O)cc1	-1.83
CN(C)C(=S)NC1(C)CCS(=O)(=O)C1 (stereo not shown)	6.89
Cc1cccc(C(=O)N(C)c2nnc(-c3ccncc3)s2)c1	1.3

Compound	hERG current change (%, negative = inhibition) at 10uM [%]
CCOc1ccc(CN2CCNC(=O)C2CC(=O)NCCCC2CCCC2)cc1 (stereo not shown)	-34.1
Cc1ccc2c(c1)NC(=O)C(CC(=O)NCc1ccc(F)cc1)O2 (stereo not shown)	-9.72
CN(C)S(=O)(=O)c1cccc(C(=O)NCC2CCCCC2)c1	-0.436
COc1ccc(-c2csc(NC(=O)c3cccc(S(=O)(=O)N4CCN(C)CC4)c3)n2)cc1	4.56
Nc1nc(NCc2ccco2)nc(Nc2ccccc2)c1[N+](=O)[O-]	7.73
CC(C)c1ccc(CSc2ccc(S(=O)(=O)N3CCOCC3)cn2)cc1	-1.18
CN(C)S(=O)(=O)c1cc(C(=O)O)c(NC2CCCCC2)cc1Cl	10.7
N#CC1=C(SCC(=O)Nc2nccs2)NC(=O)CC1c1ccccc1 (stereo not shown)	-25.3
CN1C(=O)/C(=C\c2ccc(-c3ccccc3)o2)SC1=S	12.3
CCN1C(=O)c2cccc3c(S(=O)(=O)Nc4nc(C)cs4)ccc1c23	11.7
O=C(O)CCCC(=O)Nc1c(F)c(F)c(F)c(F)c1F	3.41
Cc1ccsc1/C=N/N=C/c1sccc1C	13.5
O=C(O)C(Cc1c[nH]c2ccccc12)NS(=O)(=O)c1ccccc1 (stereo not shown)	-11.3
CC(=O)Nc1ccc(C(=O)/C=C/c2ccc[nH]2)cc1	8.36
CC1(C)C(C(=O)O)N2C(=O)C(NC(=O)Cc3ccccc3)C2S1=O.O (stereo not shown)	4.23
CC(=O)c1ccccc1NC(=O)C1CC(=O)N(c2ccc3c(c2)OCCO3)C1 (stereo not shown)	6.61
Cn1c(=O)c2c(nc(NC3CCCCC3)n2CC(=O)C23CC4CC(CC(C4)C2)C3)n(C)c1=O	13.9
CCNc1nc(NC(C)C)nc(N(C)C#N)n1	1.09
C=CCn1nnnc1-c1cccc(Cl)c1	21.4
Cc1cc(N(C)C)nc(Nc2ccccc2)n1	-56.8
O=C(NN=C1CCCCCC1)c1ccc2c(c1)OCO2	22
CC(C)C(C)(C#N)NC(=O)CSc1nnc(C(F)(F)F)n1C (stereo not shown)	6.45
Cc1ccc(C)c(N2CCN(C(=O)Cn3cccc3)CC2)c1	-19

Compound	hERG current change (%, negative = inhibition) at 10uM [%]
Cc1nn(C)c(C)c1Nc1ccc(N2C(=O)C3CC=CCC3C2=O)cc1[N+](=O)[O-] (stereo not shown)	-7.96
COc1ccc(CCNC(=O)C(=O)NCCC2CCCCN2S(=O)(=O)c2ccccc2)cc1 (stereo not shown)	6.37
CC(C)C(=O)NCCc1nc(-c2ccccc2Cl)no1	16.1
Cc1ccc(-c2cc(C(F)(F)F)nc(SCC(=O)c3cccc([N+](=O)[O-])c3)n2)cc1	10.5
c1ccc(-c2nc3ccccc3[nH]2)cc1	8.78
CCOC(=O)C1C(=O)C=C(/C=C/c2ccc(N(C)C)cc2)CC1c1ccccc1 (stereo not shown)	12.5
O=C(NCC1CCC(C(=O)O)CC1)OCc1ccccc1 (stereo not shown)	3.13
CN(C)CC(O)COC(c1ccccc1)c1ccccc1 (stereo not shown)	-51.6
COc1ccc(CNC(=O)CN(C)Cc2ccccc2F)cc1OC	-23.3
CN1C(=O)/C(=C/c2cc(N=Nc3ccccc3)ccc2O)SC1=S	-3.15
Cc1[nH]n(-c2ccccc2)c(=O)c1C=Nc1cccc(F)c1	8.86
CC(C)C(C(=O)Nc1ccc2c(c1)OCCOCCOCCOCCO2)N1C(=O)c2ccccc2C1=O (stereo not shown)	-38.7
O=C(O)CN1c2cccc3cccc(c23)S1(=O)=O	32.4
Cc1ccc(NC(=O)CSc2nc3nc(C)cc(C)c3c(=O)[nH]2)cc1	-3.64
CC(=O)c1ccc(NC(=O)CSc2nccn2C)cc1	12.7
CCCCOc1ccc(C(=O)Nn2c(-c3cccs3)nc3ccccc3c2=O)cc1	-1.72
CC(=O)Nc1ccc(S(=O)(=O)N2CCSCC2)cc1	-1.03
CC1CCN(C(=O)c2ccccc2NC(=O)c2cccc(S(=O)(=O)N(C)C)c2)CC1	-4.98
Cc1cnn(Cc2cccnc2)c1N	8.46
Cc1ccc(C)c(S(=O)(=O)N2CCN(C(=O)CN3C(=O)NC(C)(C)C3=O)CC2)c1	9.7
Br.Cc1ccc(C2=CSC3=NCCN23)cc1	-4.96
Nc1cc(N)nc(SCC(=O)c2ccccc2)n1	7.29
CCN(CC)c1ccc(/C=N/NC(=O)Cc2nnc(NC(=O)Nc3ccccc3)s2)cc1	11.3

Compound	hERG current change (%, negative = inhibition) at 10uM [%]
CCOc1ccc(NC(=O)Cc2ccc(S(=O)(=O)N3CCOCC3)s2)cc1OCC	6.26
Cc1cc(C)cc(NC(=O)C2C3C=CC(O3)C2C(=O)O)c1 (stereo not shown)	23
CCOc1cc(-c2c(C#N)c(N)nc3c2CCCC3C)ccc1O (stereo not shown)	-22.2
CC(C(=O)N1CCCCC1)n1sc2ccccc2c1=O (stereo not shown)	-0.672
O=C(NC(=S)Nc1ccc(CN2CCOCC2)cc1)c1ccco1	0.314
C=CCNC(=O)CN(CCc1ccccc1)S(=O)(=O)c1ccccc1	-17.6
CSCCC(NC(=O)CCC(=O)OC1CC[C@H]2[C@@H]3CC[C@H]4CC(=O)CC[C@]4(C)[C@H]3CC[C@]12C)C(=O)O (stereo partly shown)	22.6
CN(C)C(CNC(=O)c1cc(S(=O)(=O)N(C)c2ccccc2)ccc1Cl)c1ccccc1 (stereo not shown)	-39.6
CCn1c(NCc2ccccc2NS(=O)(=O)c2ccc(C)cc2)nc2ccccc21	1.94
Cc1ccccc1COc1ccc(-c2nn[nH]n2)cc1	13
CCCN(CC(=O)Nc1ccccc1C)C(=O)Cc1c(C)nc2ccccc2c1C	-77.4
COc1ccc(-n2ncc3c(NCC4CCCO4)ncnc32)cc1 (stereo not shown)	12.7
CCC(=O)NCCC(c1ccco1)c1ccccc1OC (stereo not shown)	13.6
CCOC(=O)c1cnc(SCC#N)nc1N	28.5
Cc1cccc(OCC(O)CN2CCN(S(=O)(=O)c3ccc(C)cc3C)CC2)c1 (stereo not shown)	-17.5
COc1ccc(C2C(C#N)=C(N)Oc3cc(O)ccc32)cc1Cl (stereo not shown)	7.21
O=C1CC(c2c(F)cccc2Cl)C2=C(COC2=O)N1 (stereo not shown)	0.223
COC(=O)CCc1c(C)[nH]c(=S)[nH]c1=O	3.11
Cc1cc(NC2CCCCC2)nc(NCc2ccccc2)n1	-23.6
CCOc1cc(/C=C2\C(=O)N(CCc3ccc(OC)c(OC)c3)C(C)=C2C(=O)OC)ccc1O	20.5
Cc1ccc(OCC(=O)Nc2nc(-c3ccccn3)cs2)c(C)c1	8.16
CC(C)Cc1nc(C#N)c(N2CCC(C(N)=O)CC2)o1	-5.11
